The text below walks through data of the supplement of paper PMC10338343.

± gives the standard deviation. Whole data set: some 5,500 sequences, median “pre-steady-state target cleavage rate” near 0.1, cut for the highest 2% near 0.64. Only a part is listed here, and it is no random draw.

The subject of this test is MIWI (PIWIL1) piRISC loaded with piRNA #2 (30 nt). In words: pre-steady-state target cleavage rate (min^-1); MIWI and MILI are mouse PIWI proteins and EfPiwi is from a freshwater sponge; tags in brackets are library labels; higher = faster piRNA-guided slicing of the target. The following applies: guide: piRNA #2 5'p-UUAGGUAACCCAGUAGAUCCAGAGGAAUUC; auxiliary factor: 500 nM mouse GTSF1. In a few lines: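 In HEPES–potassium acetate buffer at 33 °C, […] transcribed, DNA-blocked target RNA library was mixed with 1 nM active affinity-purified piRISC carrying one synthetic guide, with or without 500 nM GTSF1 partner protein, for 0–8 or 0–960 min. Uncleaved targets were sequenced and normalised to depth and to weakly complementary targets; three trials were pooled and k3 was capped at 0.0001 min^-1. The pre-steady-state cleavage rate followed from a burst-and-steady-state fit.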
As for CUAUUCCUCUGGAUCUAGUGGGUUACCUUA, the “pre-steady-state target cleavage rate” value came out at 0.12 ± 0.018. For CUUAAGCUCUGGAUCUACUGGGUUUCCUAA the value was 0.1 ± 0.016.

Regarding GAAUUCCACUGGAUCAACUGGGUUACCUAA, the “pre-steady-state target cleavage rate” value came out at 0.634 ± 0.052.

For CAAUUCCUCUGGUUCUAGUGGGUUACCUAA, the “pre-steady-state target cleavage rate” value was determined as 0.303 ± 0.034. For CUUUUCGUCUGGAUCUAGUGGGUUACCUAA, the “pre-steady-state target cleavage rate” value was 0.0486 ± 0.0092. For CUUAAGGACUGGAUCUACUGGGUGUACCUAA the value was 0.106 ± 0.052; for CUAUUCCUCUGGAUCUACUGGGUUUCGUAA, 0.275 ± 0.048; for CUUAACCUCUUGGAUCUACUGGGUUACCUAA, 0.23 ± 0.022. Next, CUUAAGCUCUGCAUCUACUGGGUUUCCUAA: 0.069 ± 0.017; CUUAUCCUCUUGGAUCUACUGGGUUACCUAA: 0.331 ± 0.036; CUAUUCCAGUGGAUCUACUGGGUUACCUAA: 0.556 ± 0.05.

Consider CAAUUCCUCUGGACCUACUGGGUUACCUAA, for which the “pre-steady-state target cleavage rate” value worked out at 0.213 ± 0.032.

With CUUAACCUCCUGGAUCUACUGGGUUACCUAA, the “pre-steady-state target cleavage rate” value was found to be 0.275 ± 0.028. GUAUUCCUCUGGAUCUACUGGGAUACCUAA: the “pre-steady-state target cleavage rate” value came out at 0.0903 ± 0.026. Turning to CUUAAGGUCUCGAUCUUCUGGGUUACCUAA, the “pre-steady-state target cleavage rate” value was found to be 0.0684 ± 0.01. Regarding CUAUUCCUCUGGAACUAGUGGGUUACCUAA, the “pre-steady-state target cleavage rate” value came to 0.259 ± 0.033. Consider CUGUUCCUCUGGAUCUACUGGGUUACCUAA, for which the “pre-steady-state target cleavage rate” value amounted to 0.0633 ± 0.028. Regarding GAAUUCCUCUGCAUCUACUGGGAUACCUAA, the “pre-steady-state target cleavage rate” value came out at 0.233 ± 0.029.

As to CUUAACCUCUGGAUCUACACCGUUACCUAA, the “pre-steady-state target cleavage rate” value worked out at 0.0655 ± 0.0085. CUUUACCUCUCGAUCUACUGGGUUACCUAA: the “pre-steady-state target cleavage rate” value came to 0.47 ± 0.033.

As for CUUAACCUCUGGAUCUUCUGGGUUACGUAA, the “pre-steady-state target cleavage rate” value was 0.316 ± 0.039. On to CUUAAGCUCUGGAUCAACUGGGUUAGCUAA, for which the “pre-steady-state target cleavage rate” value stood at 0.0953 ± 0.019. For the sequence CUUUUCCUCUGGAUCUACUGCGUUACCUUA, the “pre-steady-state target cleavage rate” value is 0.331 ± 0.038. For the sequence GAAUUCCUCUGGAUCUACUGGGUUACAUAA, the “pre-steady-state target cleavage rate” value was found to be 0.64 ± 0.057. Turning to CUUAACCUCUGGAUCUACUGGGUUACCAUA, the “pre-steady-state target cleavage rate” value was 0.274 ± 0.038. As for CUUAAGGUCUGGAUCUACUGGCUUACCUUA, the “pre-steady-state target cleavage rate” value was 0.0232 ± 0.0079. CUUAUCCUCUGGUUCUACUGCGUUACCUAA: the “pre-steady-state target cleavage rate” value came to 0.455 ± 0.04. Next, CUUUUCCUCUGGAUCGUACUGGGUUACCUAA: 0.00562 ± 0.0048; CUUAUCCUCAGGAUCUUCUGGGUUACCUAA: 0.279 ± 0.044. Next, CUUAAGCUCUGGUUCUUCUGGGUUACCUAA: 0.137 ± 0.011; CUUAAGGAGUGGAUCUACUGGGUUAUCCUAA: 0.0611 ± 0.016; GAAUUCCUCUGGAUCUACUGGGUUCACCUAA: 0.343 ± 0.064.

With CUUAAGCACUGGAUCUACAGGGUUACCUAA, the “pre-steady-state target cleavage rate” value came out at 0.138 ± 0.011.

For CUUAAGCUCUGCAUCUAGUGGGUUACCUAA, the “pre-steady-state target cleavage rate” value was 0.0982 ± 0.01. GAAUUCCUGUGGAUCAACUGGGUUACCUAA: the “pre-steady-state target cleavage rate” value stood at 0.4 ± 0.026.

For the sequence CUUAAGCUCUCGAUCUACUGGGUUACCUAA, the “pre-steady-state target cleavage rate” value was found to be 0.272 ± 0.026. As to CUAAUCCUCUGGAUCUACUGGGUUUCCUAA, the “pre-steady-state target cleavage rate” value turned out to be 0.358 ± 0.063. Take CAAUUCCUUCUGGAUCUACUGGGUUACCUAA: the “pre-steady-state target cleavage rate” value was determined as 0.525 ± 0.05.

Consider CUUAAGCACUGGAUCUACUGGGUUUCCUAA, for which the “pre-steady-state target cleavage rate” value worked out at 0.193 ± 0.035. In the case of CUUUUGCUCUGGAUCUAGUGGGUUACCUAA, the “pre-steady-state target cleavage rate” value came out at 0.0614 ± 0.0085.

On to GAAUUCCUCUGGAUCUAGUGGGUUACGUAA, for which the “pre-steady-state target cleavage rate” value was 0.164 ± 0.02. CUUUUCCUCUUGAUCUACUGGGUUACCUAA: the “pre-steady-state target cleavage rate” value is 0.705 ± 0.039.

Consider CUUAUCCUCUGGUAUCUACUGGGUUACCUAA, for which the “pre-steady-state target cleavage rate” value was 0.376 ± 0.049. Turning to CUUUUCCUCUGGUUCUACAGGGUUACCUAA, the “pre-steady-state target cleavage rate” value turned out to be 0.273 ± 0.029. Turning to GAAUUCCUCUGGAUCUACUGGUUUACCUAA, the “pre-steady-state target cleavage rate” value was found to be 0.212 ± 0.025. For CUUAAGCUCUGGAUCUACUGGGUUACCUAAA the value was 0.0903 ± 0.016; for CUUUUCCUCUGCAUCUACUGGCUUACCUAA, 0.113 ± 0.011; for CUUAAGGAGAGGUUCUACUGGGUUACCUAA, 0.00782 ± 0.0025. As for CUAUUCCUCUGGAUCUACUGCGUUACCUUA, the “pre-steady-state target cleavage rate” value is 0.355 ± 0.061. Next, CUUAACGUCUGGAUCUACUGGCUUACCUAA: 0.0738 ± 0.014. As to CUAUUCCUCUGGAUCUUCAGGGUUACCUAA, the “pre-steady-state target cleavage rate” value was found to be 0.186 ± 0.025. Regarding GAAUUCCUCUGGAUCUACUGGGUUAGGUAA, the “pre-steady-state target cleavage rate” value was 0.395 ± 0.095. Consider CUAUUCCUCUGGAUCUAGUCGGUUACCUAA, for which the “pre-steady-state target cleavage rate” value is 0.00623 ± 0.0038.

On to CUUUUCCAUCUGGAUCUACUGGGUUACCUAA, for which the “pre-steady-state target cleavage rate” value was 0.413 ± 0.042. Take CUUAACCUCUGGAUCUACUGGGUUCCCUAA: the “pre-steady-state target cleavage rate” value turned out to be 0.128 ± 0.021. Next, CUUUUCCUCAGGAUCUACUGGGUUACCAAA: 0.326 ± 0.055. In the case of CUUAAGGUCUGGAUCUUCUGGGUUUCCUAA, the “pre-steady-state target cleavage rate” value was determined as 0.0215 ± 0.0063. Regarding CUUAAGGUCUGGUAGUACUGGGUUACCUAA, the “pre-steady-state target cleavage rate” value worked out at 0.00771 ± 0.0077. Next, CUUAACCUCUGGAUCUACUGGGUUACCUUA: 0.176 ± 0.025; CUUAAGGAGUGGAUCUACUGGGGUACCUAA: 0.017 ± 0.0046; CUUAAGCUCUGGAAGUACUGGGUUACCUAA: 0.218 ± 0.02. On to CUUAACCUCUGGAUCUAGUGGGUUACGUAA, for which the “pre-steady-state target cleavage rate” value came to 0.165 ± 0.019. Consider CUUAAGCUCUGCAUCUACUGGGAUACCUAA, for which the “pre-steady-state target cleavage rate” value worked out at 0.113 ± 0.016. With CUUAAGCUCUGGAUCUACUGGGUAACCUAA, the “pre-steady-state target cleavage rate” value is 0.0515 ± 0.013. As to CUUAAGCUCUGGAUCUACUCGGUUACCAAA, the “pre-steady-state target cleavage rate” value was 0.0451 ± 0.016.

With CUUUUCCACUGGAUCUACUGGGUUUCCUAA, the “pre-steady-state target cleavage rate” value came to 0.45 ± 0.055. With CUUAAGGAGACCAUCUACUGAGUUACCUAA, the “pre-steady-state target cleavage rate” value is 0.00468 ± 0.0026. Regarding CUUAUCCAGAGGAUCUACUGGGUUACCUAA, the “pre-steady-state target cleavage rate” value is 0.0636 ± 0.011. For CUUAAGCUGUGGAUCUACUGGGUUACCUAA the value was 0.19 ± 0.043; for CUUAAGGAGUGGUUCUACUGGGUUACGUAA, 0.132 ± 0.025; for CUUAUCCUCUGGAUCUACUGGCUUACCAAA, 0.0983 ± 0.028. For CUUAUCUCUGGAUCUACUGGGUUACCUAA the value was 0.164 ± 0.026; for CUUAAGGUCUGGAUCUGCUGGGUUACCUAA, 0.272 ± 0.034; for CUUAAACUCUGGAUCUACUGGGUUACCUAA, 0.0774 ± 0.019. On to CAAUUUCCUCUGGAUCUACUGGGUUACCUAA, for which the “pre-steady-state target cleavage rate” value is 0.517 ± 0.064. Next, CUUAAGCUCUGGAUCUACUGGGUUACUUAA: 0.338 ± 0.031. Consider CUUUUCCCUGGAUCUACUGGGUUACCUAA, for which the “pre-steady-state target cleavage rate” value stood at 0.408 ± 0.036. CUUUUGCUCUGGAUCAACUGGGUUACCUAA: the “pre-steady-state target cleavage rate” value turned out to be 0.144 ± 0.021. Regarding CUUAAGGAGUGGAUGUACUGCGUUACCUAA, the “pre-steady-state target cleavage rate” value came out at 0.0246 ± 0.014.

In the case of GAUUUCCUCUGGAUCAACUGGGUUACCUAA, the “pre-steady-state target cleavage rate” value is 0.139 ± 0.032.

For the sequence CUUAACCUCUGGAUCUACUGGGUUUCCUUA, the “pre-steady-state target cleavage rate” value came out at 0.107 ± 0.02. In the case of CUUAAGCUCUGCAACUACUGGGUUACCUAA, the “pre-steady-state target cleavage rate” value was 0.116 ± 0.016. On to CUUAUCCUCUUGAUCUACUGGGUUACCUAA, for which the “pre-steady-state target cleavage rate” value amounted to 0.535 ± 0.032.

Take “GAAUUCCUCUGGAUCUACUGGGUUACCUAA [g2:g30:cont:t1A]”: the “pre-steady-state target cleavage rate” value amounted to 0.299 ± 0.053. Consider CUUUUCCUCAGGAUCUUCUGGGUUACCUAA, for which the “pre-steady-state target cleavage rate” value was 0.402 ± 0.066. For CUUAACCUCUGGAUCUUCUGGGUAACCUAA, the “pre-steady-state target cleavage rate” value was 0.0409 ± 0.0084. Regarding CUUAACCACUGGAUGUACUGGGUUACCUAA, the “pre-steady-state target cleavage rate” value amounted to 0.328 ± 0.03.

Regarding CUUUUCCUCUGGAACUACUGGCUUACCUAA, the “pre-steady-state target cleavage rate” value was determined as 0.167 ± 0.023. In the case of GAAUUCCUCGUGGAUCUACUGGGUUACCUAA, the “pre-steady-state target cleavage rate” value was determined as 0.208 ± 0.032. As for CUAUUCCUGUGGAUCUACUGGGUUAGCUAA, the “pre-steady-state target cleavage rate” value was 0.144 ± 0.037. Regarding CUAUUCCUCUGGAUCUACUGGGUUACUAA, the “pre-steady-state target cleavage rate” value came to 0.299 ± 0.072. As for CUUAACCUCACCAUCUACUGGGUUACCUAA, the “pre-steady-state target cleavage rate” value was determined as 0.0839 ± 0.016.
